Assay results from publication PMC6919601, “Identification of Plasmodium dipeptidyl aminopeptidase allosteric inhibitors by high throughput screening” (PLoS ONE, 2019).
The whole screen tested about 110,000 compounds, of which about 230 (0.21%) showed an effect of 50% or more. Some of the results follow.

molecular target: DPAP1 (Plasmodium falciparum, UniProt Q8IIJ9); assay: primary screen, percent inhibition; read by cleavage of a fluorogenic dipeptide substrate; higher = more effect of the substance; parameters: species or system P. falciparum D10 trophozoite lysates; single well
Sequence (Q8IIJ9 whole entry, looked up): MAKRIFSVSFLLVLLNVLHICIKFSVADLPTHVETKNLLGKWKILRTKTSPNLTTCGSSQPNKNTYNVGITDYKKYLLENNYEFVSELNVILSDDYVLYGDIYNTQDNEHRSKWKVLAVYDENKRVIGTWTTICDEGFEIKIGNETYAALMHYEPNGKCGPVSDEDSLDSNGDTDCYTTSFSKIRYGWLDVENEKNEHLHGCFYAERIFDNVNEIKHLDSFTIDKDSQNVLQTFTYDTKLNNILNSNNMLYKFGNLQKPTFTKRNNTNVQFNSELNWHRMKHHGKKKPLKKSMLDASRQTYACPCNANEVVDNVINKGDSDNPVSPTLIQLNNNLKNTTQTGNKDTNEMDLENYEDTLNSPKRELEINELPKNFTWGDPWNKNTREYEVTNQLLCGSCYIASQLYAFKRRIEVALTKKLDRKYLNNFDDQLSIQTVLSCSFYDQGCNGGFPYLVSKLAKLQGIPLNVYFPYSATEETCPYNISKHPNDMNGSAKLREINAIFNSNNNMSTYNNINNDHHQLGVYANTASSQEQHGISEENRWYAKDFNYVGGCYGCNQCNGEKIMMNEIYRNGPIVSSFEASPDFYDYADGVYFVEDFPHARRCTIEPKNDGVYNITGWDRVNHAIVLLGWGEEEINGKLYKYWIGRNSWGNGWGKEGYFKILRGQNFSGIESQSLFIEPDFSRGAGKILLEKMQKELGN
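Note: 30 min substrate incubation versus DMSO and 10 µM JCP410 controls.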

| Structure (SMILES) | % Inhibition @ 10 uM [%] |
| --- | --- |
| Cc1cccc(-c2nnc(C3CCNCC3)o2)c1 | 9.95 |
| Fc1ccc(OCCCN2CCCCC2)cc1 | 8.26 |
| O=C1CC(N2CCCCCC2)C(=O)N1c1ccc(N2C(=O)CC(N3CCCCCC3)C2=O)cc1 (stereo not drawn) | 1.72 |
| CN(C)CCC(C)(O)Cc1ccccc1 (stereo not drawn) | -0.864 |
| COc1ccc(-c2csc(N3N=C(c4ccc(F)cc4)CC3c3ccc(C(C)C)cc3)n2)cc1F (stereo not drawn) | -1.15 |
| CCOc1ccc(C2C(C#N)=C(N)Oc3[nH]nc(C)c32)cc1OCC (stereo not drawn) | -4.33 |
| CC12C=CC(C)(O1)C1C(=O)N(c3ccccc3C#N)C(=O)C12 (stereo not drawn) | 0.983 |
| CCOc1ccc2nc(N3CCC(C(=O)Nc4cc(-c5cccc(F)c5)[nH]n4)CC3)sc2c1 | -3.35 |
| COc1ccccc1CNC(=O)C1CCCN(S(C)(=O)=O)C1 (stereo not drawn) | -1.21 |
| COc1ccccc1/N=C1\SC(CC(=O)Nc2ccc(C(C)C)cc2)C(=O)N1C (stereo not drawn) | 16.3 |
| Cc1ncsc1CCOC(=O)Nc1ccccc1F | 5.4 |
| O=C(NCC1CCCO1)c1ccc(Cn2c(SCc3ccc(F)cc3)nc3ccncc32)cc1 (stereo not drawn) | 1.41 |
| CCOc1ccc(C2C3=C(O)CC(C)(C)CC3=NC(C)=C2C(=O)Nc2cc(C)ccn2)cc1 (stereo not drawn) | -3.9 |
| Brc1csc(CN2CCN(c3ccccc3)CC2)c1 | 4.73 |
| CC(C)CC(NC(=O)c1ccc(N2CCN(C)CC2)cc1)C(=O)NCC#N (stereo not drawn) | -7.36 |
| O=C(C1CCCN(S(=O)(=O)c2cccc3nsnc23)C1)N1CCN(c2ncccn2)CC1 (stereo not drawn) | -2.52 |
| CCNS(=O)(=O)c1ccc(OC)c(C(=O)NC2CCCCC2)c1 | -9.07 |
| C=CCN1C(=O)/C(=C\c2ccccc2C(=O)O)SC1=S | 1.27 |
| O=C(NCc1ccc(F)cc1)C1CC(=O)N(C2CCCCCC2)C1 (stereo not drawn) | -2.99 |
| O=C(Cn1ccc2ccccc2c1=O)NCC(=O)NC1CCCCCC1 | -0.972 |
| O=C1NC(=O)/C(=C/c2ccc(-c3ccc(O)c(C(=O)O)c3)o2)S1 | 64.8 |
| Cc1nc2ncnn2c(C)c1CCC(=O)N1CCN(c2ccccn2)CC1 | 1.26 |
| COc1ccc(CCNC(=O)CCCc2nnc3n(CC(C)C)c(=O)c4sccc4n23)cc1OC | -1.31 |
| O=C1CC(c2ccsc2)c2c(-c3ccccc3)n[nH]c2N1 (stereo not drawn) | -5.36 |
| O=C(Cn1ncc2c(=O)oc3ccccc3c21)N1CCN(C(=O)c2ccco2)CC1 | -4.69 |
| COc1cccc(NC(=O)CCCC(=O)Nc2cccc(OC)c2)c1 | -4.43 |
| CCOc1ccc(C(=O)NCCc2ccc(S(N)(=O)=O)cc2)cc1OCC | 3.27 |
